Reference: PubChem BioAssay AID1346428 (National Center for Advancing Translational Sciences (NCATS), 2018)
Among all 48,000 compounds or so, about 1,200 (2.5%) were called active. Roughly 2% stayed inconclusive and do not appear here.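 How the source made its calls: active means activation of at least 60% and not above a set upper limit (about 1 call in 100 departs from these limits); inconclusive means activation of 40% to 60%, or above that upper limit; inactive means activation under 40%.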 The list shows a part of the results.

molecular target: Probable G-protein coupled receptor 32 (Homo sapiens) (UniProt O75388); assay: qHTS for Agonists of Human Resolvin D1 Receptor DRV1; settings: CHO-K1 GPR32 beta-arrestin PathHunter luminescence, 90 min; at 76.9 µM; hits give high values; zero percent set by DMSO-only wells; further: 0% is about no effect
Summary of the method: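 Beta-arrestin recruitment read-out: luminescence from complemented beta-Gal in CHO-K1 GPR32 PathHunter cells, measured 1 h after detection reagent at ambient temperature following 90 min compound exposure at 37 °C; DMSO served as basal (EC0) control.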

SMILES	activation
O=C(CSc1nccn1-c1ccc(F)cc1)Nc1cccc2ccccc12	inactive: -25.8%
Cc1ccc(NC(=O)CSc2nc(C3CCCC3)nc3c2c(=O)n(C)c(=O)n3C)c(C)c1	inactive: -0.178%
CCOC(=O)c1c(-c2ccccc2)oc2cc(Br)c(OCc3ccccc3)cc12	inactive: -4.44%
Cc1ccc(OCCCCn2nnc3sc4c(c3c2=O)CCC(C)C4)cc1 (centres undefined)	inactive: -0.564%
CCn1c(=N)c(C(=O)NC2CCCC2)cc2c(=O)n3cc(C)ccc3nc21	inactive: -2.17%
O=C(Cn1c(=O)n(-c2ccc(F)c(Cl)c2)c(=O)c2sc3ccccc3c21)NC1CCCCC1	inactive: -3.58%
Cc1ccc(Cl)cc1Nc1nn2c(=O)c3ccc(C(=O)NC4CCC(C)CC4)cc3nc2s1 (centres undefined)	inactive: 10.9%
CN1CCN(C2(CNC(=O)COc3ccc(C(C)(C)C)cc3)CCCCC2)CC1	inactive: -11.3%
CCN(CC)S(=O)(=O)c1ccc2c(c1)N(CC(=O)NCCCN1CCN(c3cc(C)ccc3C)CC1)C(=O)CO2	inactive: -24.1%
CCOc1ccc(C(=O)NCCc2csc(-c3cccnc3)n2)cc1	inactive: 36.9%
Cc1ccc(NC(=O)C2CCCN(S(=O)(=O)c3cccc4nsnc34)C2)c(C)c1 (centres undefined)	inactive: -9.15%
CCNC(=O)C1CCCN(c2nn3cc(-c4ccc(C)cc4)nc3s2)C1 (centres undefined)	inactive: -5.02%
CC(C)c1ccc(CNCCSc2nnnn2-c2ccccc2)cc1	inactive: 21.7%
CCOc1ccc(-n2nc3ccc(NC(=O)COc4ccccc4)cc3n2)cc1	inactive: -2.01%
Cc1cc(C)cc(NC(=O)C2CCN(c3nc4ccccc4nc3C(F)(F)F)CC2)c1	inactive: 6.23%
CCc1ccc(NC(=O)Cn2c(=O)n(CCC(=O)NCCc3ccc(OC)c(OC)c3)c(=O)c3ccccc32)cc1	inactive: 10.1%
CCC(C)S(=O)(=O)c1oc(-c2ccc(F)cc2)nc1S(=O)(=O)c1ccc(F)cc1 (centres undefined)	inactive: 13.2%
COc1ccc(Cn2c(C(=O)O)c(CNCc3ccc(C)o3)c3ccc(OC)cc32)cc1	active: 74.6%
CCOc1ccc(NC(=O)c2ccc3nc(C(C)C)oc3c2)cc1	inactive: -18.4%
COc1ccc(Cn2c(=O)c3ccccc3n3c(-c4ccc(C)cc4)nnc23)cc1	inactive: -13.6%
COc1ccccc1OC(C)C(=O)N1CCC(c2nc3ccccc3s2)CC1 (centres undefined)	active: 84.8%

SMILES	activation
Cc1ccc(C)c(CN2C(=O)CSc3ccc(C(=O)NCc4ccccc4)cc32)c1	inactive: -10.7%
CCc1cccc(NC(=O)Cn2nc(C)c3sc4ccccc4c3c2=O)c1	inactive: -8.9%
Cc1ccc(OCc2cc(=O)n3cc(C)sc3n2)c(NC(=O)c2ccco2)c1	inactive: -14.4%
COc1ccc(NC(=O)c2cnc3sc(N4CCOCC4)nn3c2=O)c(OC)c1	inactive: -0.286%
COc1cc(C(=O)Nc2c(C(=O)Nc3ccccc3F)oc3ccccc23)cc(OC)c1OC	inactive: -7.11%
Cc1ccc(C)c(NC(=O)Cn2cc(S(=O)(=O)NC(C)C)c(S(=O)(=O)NC(C)C)c2)c1	inactive: 2.92%
CC(C)c1cc2c(cc1S(=O)(=O)O)[C@@]1(C)CCC[C@@](C)(C(=O)O)[C@@H]1CC2	inactive: 0.0557%
CCCn1c(NCc2ccccc2F)nc2ccccc21	inactive: -4.27%
CCC(=O)N1c2ccc(S(=O)(=O)CCC(=O)N3CCN(c4ccc(F)cc4)CC3)cc2CC1C (centres undefined)	inactive: 8.96%
COc1ccc2c(c1)CC(NC(=O)Nc1ccc(Br)c(C)c1)CO2 (centres undefined)	inactive: 1.87%
O=C(NCc1cccc(F)c1)c1ccc2nc(CCc3ccccc3)oc2c1	inactive: 20.6%
CCOC(=O)c1cc2c(=O)n3ccccc3nc2n(CC2CCCO2)c1=NC(=O)c1ccc(F)cc1 (centres undefined)	inactive: -16.6%
COc1ccc(-c2nnc(SCC(=O)Oc3cc(C)ccc3C)o2)cc1	inactive: -8.54%
COc1ccc(C(=O)Nc2nonc2-c2ccc(OC)c(OC)c2)cc1Cl	inactive: -5.41%
Cc1ccc(-c2nc(Cn3c(SCc4ccc(F)cc4)nc4cccnc43)c(C)o2)cc1	inactive: -10.2%
CCN(C(=O)c1cccn(Cc2cccc(Cl)c2)c1=O)c1ccccc1	inactive: -2.08%
CCCCCNC(=O)c1ccc2c(=O)n(CCc3ccccc3)c(=O)[nH]c2c1	inactive: -5.33%
CCOC(=O)N1CCc2c(sc(NCc3cccc(F)c3)c2C(=O)Nc2ccc(OCC)cc2)C1	inactive: -7.2%
CCSc1ncc(Cl)c(C(=O)Nc2ccc(S(=O)(=O)N3CCCCC3)cc2)n1	inactive: -2.65%
CCOc1ccc(NC(=O)Cn2c(=O)n(-c3cccc(OC)c3)c(=O)c3c4c(sc32)CCCC4)cc1	inactive: -9.52%
COc1ccc(Cl)cc1NS(=O)(=O)c1ccc2c(c1)NC(=O)CC(=O)N2	inactive: -5.11%

SMILES	activation
CCCCN(CCCC)CCNC(=O)c1cn(CC)c2ccc(S(=O)(=O)N(C)C3CCCCC3)cc2c1=O	inactive: -21.8%
Cc1ccc(C)c(Cn2cc(S(=O)(=O)c3ccc(Cl)cc3)c(=O)c3cc(F)ccc32)c1	inactive: -9.54%
CCc1ccc(NC(=O)c2ccc3[nH]c(C)c(C)c3c2)cc1	inactive: -18.9%
CCN(Cc1ccccc1)C(=O)CN(c1ccc(OC)cc1)S(=O)(=O)c1c(C)nn(C)c1C	inactive: -74.4%
CCOC(=O)C1CCN(C(=O)Cn2c(=O)oc3cc(S(=O)(=O)N4CCC(C)CC4)ccc32)CC1	inactive: -0.0627%
CC(=O)N1CCc2c(sc3c2c(=O)n(CCc2ccccc2)c(=O)n3Cc2ccc(Cl)cc2)C1	inactive: -5.81%
COCCNC(=O)Cn1c(=O)n(CCCCCC(=O)NCc2ccc3c(c2)OCO3)c(=O)c2sccc21	inactive: -8.19%
Cc1ccccc1NC(=O)CSc1nc2c(c(=O)n(C)c(=O)n2C)n1Cc1ccccc1F	inactive: 29%
Cc1cc2c(cc1S(=O)(=O)N1CCCCC1)OCC(=O)N2	inactive: -21.2%
CCOCCCNc1ncnc2c1cnn2-c1ccc(C)c(C)c1	active: 89.3%
CCNc1nc(OC)nc(Oc2ccc(=O)[nH]n2)n1	inactive: -5.42%
COc1ccc(-c2nc(CSc3nncn4c3cc3sccc34)c(C)o2)cc1OC	inactive: -10%
O=C(CN1C(=O)CCc2cc(S(=O)(=O)N3CCOCC3)ccc21)NCc1ccccc1	inactive: 9.72%
CN1[C@@H]2CC[C@H]1CC(OC(=O)C(O)c1ccccc1)C2 (some centres undefined)	inactive: -1.35%
CC(C)(C)c1ccc(S(=O)(=O)N2CCN(Cc3noc(CCC(=O)N4CCCCC4)n3)CC2)cc1	inactive: -4.36%
CCc1ccc(NC(=O)CSC2=Nc3ccccc3C3=NC(CCC(=O)NCc4ccco4)C(=O)N23)cc1 (centres undefined)	inactive: -26.2%
CCCNC(=O)c1ccc2nc(CCc3ccccc3)oc2c1	inactive: -10.2%
Cc1cc(C)cc(S(=O)(=O)c2cn(C)c3cc(N4CCCC4)c(F)cc3c2=O)c1	inactive: -5.76%
Cc1ccc(-c2nc3sc(CCNC(=O)c4ccc(C)c(C)c4)c(C)n3n2)cc1	inactive: 6.18%
CCc1ccccc1NC(=O)N(C)CCc1c(C)nn(C)c1C	inactive: 1.29%
COc1ccc(C(=O)n2nc(-c3ccco3)nc2NCc2cccs2)cc1OC	inactive: -30.6%

SMILES	activation
Cc1ccccc1-n1c(SCc2ccc(Cl)cc2)nc2[nH]ncc2c1=O	inactive: -22.7%
COc1cccc(N2CCN(C(=O)CCc3c(C)nc4c(c3C)c(=O)n(C)c(=O)n4C)CC2)c1	inactive: 1.58%
CCC(C)NC(=O)c1ccc2c(c1)N(Cc1ccccc1)C(=O)c1ccccc1S2 (centres undefined)	inactive: -8.51%
CCN(CC)c1cc2c(cc1F)c(=O)c(S(=O)(=O)c1ccc(OC)cc1)cn2CC	inactive: 2.88%
CCOc1ccc(CNC(=O)C2CCCN(S(=O)(=O)c3ccc4c(ccn4C)c3)C2)cc1 (centres undefined)	inactive: -2.88%
COc1ccc(-c2c3c(=O)n(C)c(=O)n(C)c3c3c(C)nc4ccccc4n23)cc1	inactive: -30.1%
CC(C)(C)c1ccc(-c2nc(SCCCOc3ccccc3)n3[nH]c(=O)cc3n2)cc1	inactive: -19.6%
COc1ccc(-c2nc(CN3CCC(C(=O)NCc4ccccc4)CC3)c(C)o2)cc1OC	inactive: -4.61%
Cn1nnc2c(N3CCN(c4ccccc4Cl)CC3)ncnc21	inactive: -16%
CCOC(=O)c1ccccc1NC(=O)N(C(C)C)C1CCN(C(C)=O)CC1	inactive: -10.6%
CCOC(=O)Cn1c(=O)n(-c2ccccc2OC)c2nc(-c3cccc(F)c3)nc(C(N)=O)c21	inactive: -15.7%
Cc1ccc(-c2nnc(SCc3cccc(C#N)c3)o2)cc1	inactive: 2.9%
CCOC(=O)c1cccnc1SCC(=O)Nc1ccc(C)cc1C	inactive: -24%
CN(C)CCNC(=O)c1ccc2c(=O)n3c(nc2c1)CCCCC3	inactive: -5.31%
O=C(NCCc1ccccc1)c1nnc(Cc2cccc(F)c2)o1	inactive: -1.11%
COc1ccc(-c2nc(C)c(CCNS(=O)(=O)c3cc(C)c(C)cc3C)s2)cc1	inactive: -0.585%
Cc1ccc2c(c1)-c1c(cnc3cc(-c4ccccc4)nn13)CO2	inactive: -13.2%
CCCCc1ccc(NC(=O)c2ccc(=O)n(Cc3cccc(C)c3)c2)cc1	inactive: 19%
Cc1cccc(N2CCN(C(=O)c3cccc(-n4c(C)nc5cccnc54)c3)CC2)c1C	inactive: 4.78%
CCn1c(=O)[nH]c2cc(Cl)c(Cl)cc21	inactive: 12%
CCOc1ccccc1CNC(=O)C1CCN(c2nn3cc(-c4ccc(F)cc4)nc3s2)CC1	inactive: -0.729%
